# Assay results from PMC9911399, “Two distinct binding modes provide the RNA-binding protein RbFox with extraordinary sequence specificity”.
# Residue numbers refer to the chain shown, from its start. The list shows a part of the results.
# T1: RBFOX1 RRM (Homo sapiens, UniProt Q9NWB1 109-208)
# T1 sequence: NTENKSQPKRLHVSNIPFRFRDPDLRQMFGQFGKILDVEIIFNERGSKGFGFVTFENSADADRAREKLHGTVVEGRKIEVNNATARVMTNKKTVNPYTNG
# B1: CCCUUCA (DNA:RNA)
# RNA: GGGAGACCGGAAUUCAGAUUGUCCCCCUUCAUUAAAUCCCGUCGUAGCCACCA
# DNA 1: CAATCTGAATTCCGGTCTCCC
# DNA 2: TGGTGGCTACGACGGGATT
# B2: GCCCGCC (DNA:RNA)
# RNA: B1 RNA with C25G, U28C, U29G, A31C
# DNA 1: CAATCTGAATTCCGGTCTCCC
# DNA 2: TGGTGGCTACGACGGGATT
# B3: CCGAAAA (DNA:RNA)
# RNA: B1 RNA with C27G, U28A, U29A, C30A
# DNA 1: CAATCTGAATTCCGGTCTCCC
# DNA 2: TGGTGGCTACGACGGGATT
# B4: ACAACCA (DNA:RNA)
# RNA: B1 RNA with C25A, C27A, U28A, U29C
# DNA 1: CAATCTGAATTCCGGTCTCCC
# DNA 2: TGGTGGCTACGACGGGATT
# B5: UCCUGUG (DNA:RNA)
# RNA: B1 RNA with C25U, U29G, C30U, A31G
# DNA 1: CAATCTGAATTCCGGTCTCCC
# DNA 2: TGGTGGCTACGACGGGATT
# B6: CAGUAAG (DNA:RNA)
# RNA: B1 RNA with C26A, C27G, U29A, C30A, A31G
# DNA 1: CAATCTGAATTCCGGTCTCCC
# DNA 2: TGGTGGCTACGACGGGATT
# B7: ACUAUCU (DNA:RNA)
# RNA: B1 RNA with C25A, C27U, U28A, A31U
# DNA 1: CAATCTGAATTCCGGTCTCCC
# DNA 2: TGGTGGCTACGACGGGATT
# B8: UGAAGAA (DNA:RNA)
# RNA: B1 RNA with C25U, C26G, C27A, U28A, U29G, C30A
# DNA 1: CAATCTGAATTCCGGTCTCCC
# DNA 2: TGGTGGCTACGACGGGATT
# B9: CACAUAC (DNA:RNA)
# RNA: B1 RNA with C26A, U28A, C30A, A31C
# DNA 1: CAATCTGAATTCCGGTCTCCC
# DNA 2: TGGTGGCTACGACGGGATT
# B10: AGAACUA (DNA:RNA)
# RNA: B1 RNA with C25A, C26G, C27A, U28A, U29C, C30U
# DNA 1: CAATCTGAATTCCGGTCTCCC
# DNA 2: TGGTGGCTACGACGGGATT
# B11: CGGCAAA (DNA:RNA)
# RNA: B1 RNA with C26G, C27G, U28C, U29A, C30A
# DNA 1: CAATCTGAATTCCGGTCTCCC
# DNA 2: TGGTGGCTACGACGGGATT
# B12: AUUACGC (DNA:RNA)
# RNA: GGGAGACCGGAAUUCAGAUUGUCCAUUACGCUUAAAUCCCGUCGUAGCCACCA
# DNA 1: CAATCTGAATTCCGGTCTCCC
# DNA 2: TGGTGGCTACGACGGGATT
# B13: UCCGAGA (DNA:RNA)
# RNA: B1 RNA with C25U, U28G, U29A, C30G
# DNA 1: CAATCTGAATTCCGGTCTCCC
# DNA 2: TGGTGGCTACGACGGGATT
# B14: UCAAUAC (DNA:RNA)
# RNA: B12 RNA with A25U, U26C, U27A, C29U, G30A
# DNA 1: CAATCTGAATTCCGGTCTCCC
# DNA 2: TGGTGGCTACGACGGGATT
# B15: ACAUUAA (DNA:RNA)
# RNA: B1 RNA with C25A, C27A, C30A
# DNA 1: CAATCTGAATTCCGGTCTCCC
# DNA 2: TGGTGGCTACGACGGGATT
# B16: UUAGUCC (DNA:RNA)
# RNA: B12 RNA with A25U, U27A, A28G, C29U, G30C
# DNA 1: CAATCTGAATTCCGGTCTCCC
# DNA 2: TGGTGGCTACGACGGGATT
# B17: GGUUAGA (DNA:RNA)
# RNA: B12 RNA with A25G, U26G, A28U, C29A, C31A
# DNA 1: CAATCTGAATTCCGGTCTCCC
# DNA 2: TGGTGGCTACGACGGGATT
# B18: CUCGAGG (DNA:RNA)
# RNA: B12 RNA with A25C, U27C, A28G, C29A, C31G
# DNA 1: CAATCTGAATTCCGGTCTCCC
# DNA 2: TGGTGGCTACGACGGGATT
# B19: UUCCGUG (DNA:RNA)
# RNA: B12 RNA with A25U, U27C, A28C, C29G, G30U, C31G
# DNA 1: CAATCTGAATTCCGGTCTCCC
# DNA 2: TGGTGGCTACGACGGGATT
# B20: CUUGCAC (DNA:RNA)
# RNA: B12 RNA with A25C, A28G, G30A
# DNA 1: CAATCTGAATTCCGGTCTCCC
# DNA 2: TGGTGGCTACGACGGGATT
# Target: T1, RBFOX1 RRM
# Assay: EMSA; HiTS-Eq, 1 nM pool, 10 min; buffer printed only for the single-RNA assays: 10 mM Tris pH 7.5, 150 mM NaCl, 3.4 mM EDTA, 0.001% NP-40, 30 C
# Conditions: tags: His6 N-terminal (pET28a); label: 5' 32P
# How it was run: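 Purified wild-type or mutant RbFox RRM at increasing concentrations was equilibrated with 1 nM of 5′-radiolabelled RNA carrying 7 randomized nucleotides for 10 min in 50 µL. Unbound RNA was separated by 8% native PAGE and sequenced. Relative association constants came from read-count changes of each RNA species compared with the control reaction, normalised to the cognate motif.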
row,Binder,binding signal
1,B1,0.00263 KA relative to UGCAUGU
2,B2,0.0156 KA relative to UGCAUGU
3,B3,0.00334 KA relative to UGCAUGU
4,B4,0.000855 KA relative to UGCAUGU
5,B5,0.0187 KA relative to UGCAUGU
6,B6,0.00966 KA relative to UGCAUGU
7,B7,0.000857 KA relative to UGCAUGU
8,B8,0.0167 KA relative to UGCAUGU
9,B9,0.00055 KA relative to UGCAUGU
10,B10,0.00165 KA relative to UGCAUGU
11,B11,0.00434 KA relative to UGCAUGU
12,B12,0.00592 KA relative to UGCAUGU
13,B13,0.00898 KA relative to UGCAUGU
14,B14,0.000299 KA relative to UGCAUGU
15,B15,0.000265 KA relative to UGCAUGU
16,B16,0.011 KA relative to UGCAUGU
17,B17,0.0155 KA relative to UGCAUGU
18,B18,0.00615 KA relative to UGCAUGU
19,B19,0.00966 KA relative to UGCAUGU
20,B20,0.0183 KA relative to UGCAUGU
